Source: ChEMBL document CHEMBL4888484, “Replenishing the malaria drug discovery pipeline: Screening and hit evaluation of the MMV Hit Generation Library 1 (HGL1) against asexual blood stage Plasmodium falciparum ,using a nano luciferase reporter read-out” (2022)
The campaign covered roughly 150,000 compounds. About 540 (0.36%) showed an effect of 50% or more. The list shows a part of the results.

The molecules below were run on Plasmodium falciparum (assay: Primary screen in NF54 nanoGlo assay, in single point, at 2uM, 72h; a lower Z score goes with more inhibition). Details: timepoint 72 hour.
Format: functional, Erythrocyte

| SMILES | % Inhibition [%] | Z score |
| --- | --- | --- |
| CN(CCCOCc1ccccc1)c1ccc(C#N)nn1 | -10 | 1.39 |
| COc1ccc(S(=O)(=O)Nc2nc3ncccn3n2)cc1Cl | -1 | 0.09 |
| Cc1ccc(NC(=O)NC2CCN(c3ccccc3C(=O)NCCN3CCCCC3)CC2)cc1 | 1 | -0.2 |
| Cc1nn(C)c2nc(C(=O)Nc3ccc(C(F)(F)F)cc3)cc(C3CC3)c12 | 8 | -1.03 |
| CC(C)(C)n1nnc(COc2ccc([C@@H]3CCC(=O)N3)cc2)n1 | -3 | 0.44 |
| N#Cc1ccc(F)c(CN2CCN(C(=O)CN3CCOCC3)CC2)c1 | -18 | 2.37 |
| c1ccc2nc(NCCc3nnc(C4CCOCC4)[nH]3)cnc2c1 | 7 | -0.77 |
| O=C1CC[C@@]2(CCCN(c3ncnc4ccsc34)C2)CN1Cc1cccnc1 | 12 | -1.41 |
| COc1cccc(C[C@@H]2CC[C@H](CN(C)C3CCN(C)CC3)O2)c1 | -10 | 0.92 |
| COc1ccccc1N1CCN(CN2C(=O)C(=O)c3ccccc32)CC1 | -29 | 3.37 |
| Cc1ccsc1C(=O)NC[C@H]1CCCO1 | -5 | 0.94 |
| Cc1ccnc(N2CCC(Oc3cccc(C#N)c3)CC2)c1C#N | -1 | 0.15 |
| CC(C)Cc1cc(NS(=O)(=O)c2cnn3ccccc23)[nH]n1 | 5 | -0.89 |
| CN1CCC[C@@]2(CCN(C(=O)c3cn(C)c4ccccc34)C2)C1 | -4 | 0.65 |
| CN1CCC(N2CCOC[C@H]2c2nc(-c3cccc(Cl)c3)c[nH]2)CC1 | 5 | -0.69 |
| Cc1nn(C)cc1Cn1ccnc1-c1ccc(-c2cc[nH]n2)s1 | -54 | 4.79 |
| CCc1nc(C)c(-c2nc(C3CCOCC3)nn2-c2nc(C)c(C)s2)o1 | 0 | 0.04 |
| CC(C)c1ccoc1C(=O)N1CCC[C@@H]1CC(=O)O | 10 | -1.42 |
| Cc1cnccc1CN(C)C(=O)c1cc(C)c(C)nc1O | 6 | -0.86 |
| CCCc1noc(CCCC(=O)N2CCCN(c3nc(C)ns3)CC2)n1 | -5 | 0.99 |
| Cc1cc2c(cc1S(=O)(=O)N1CCC[C@H]1C(=O)Nc1ccc(F)c(Cl)c1)OCC(=O)N2 | 0 | -0.05 |

| SMILES | % Inhibition [%] | Z score |
| --- | --- | --- |
| CN1CCN(C(=O)c2cn3c4c(cccc4c2=O)CCC3)CC1 | -10 | 1.67 |
| C[C@H](Nc1cccc2c1OCCO2)c1cc(F)ccc1F | -1 | 0.14 |
| C=C(C)CN(CC)C(=O)c1cc(Cc2ccc(OC)cc2)no1 | -8 | 1.5 |
| O=C(NCC[C@H](O)C1CCOCC1)Nc1ccccc1 | -17 | 2.65 |
| CC(C)CCn1c[n+](-c2nc3ccccc3nc2[N-]S(=O)(=O)c2ccc(Cl)cc2)c2ccccc21 | 4 | -0.74 |
| Cc1cccc(NS(=O)(=O)c2cc(C(=O)NCc3cccnc3)ccc2Cl)c1C | -5 | 1.09 |
| COc1cc2ncn([C@H]3[C@@H]4OC[C@@H](O4)[C@@H](NCC4CCCCC4)[C@@H]3O)c2cc1OC | 3 | -0.4 |
| C[C@H](c1noc(C2CCN(C(=O)c3ccoc3)CC2)n1)C1CC1 | -2 | 0.31 |
| CC(C)C[C@]1(CO)CCCN(C(=O)c2cnc(O)cc2O)C1 | -8 | 1.06 |
| CC(C)(C)OC(=O)NS(=O)(=O)Nc1cccnc1 | 30 | -3.92 |
| Cn1cc(CN2CC[C@H](O)CC(C)(C)C2)cn1 | -4 | 0.36 |
| Cc1cnc(NC(=O)CCc2cccs2)s1 | -6 | 0.71 |
| Cc1[nH]c(=O)c(C#N)c(C)c1CCC(=O)N1CCOC2CCCCC21 (stereo not drawn) | -24 | 2.22 |
| Cn1ncc2c(N3CCCC[C@@H]3Cn3cccn3)ncnc21 | 5 | -0.76 |
| COc1ccnc(NC[C@H](C)Cn2nc(C)cc2C(F)(F)F)n1 | -15 | 1.53 |
| CCN(C(=O)[C@H](C)OC)c1ccc(Cl)c(F)c1 | -10 | 2.06 |
| Cc1ccc(-c2nc(NC(=O)C3=COCCO3)sc2-c2ccc(C)cc2)cc1 | -5 | 0.54 |
| CCC(=O)c1cc(Br)ccc1OCC(=O)NC(C)(C)C | -6 | 1.12 |
| O=C(Cc1noc(Cc2ccc3c(c2)CCCC3)n1)NC1CCCC1 | 1 | -0.14 |
| Cn1cc(C(=O)N2CCc3[nH]c(-c4ccccc4)nc3C2)c(=O)[nH]c1=O | -9 | 1.37 |
| Cc1cc(C)n2nc(OCCN(C)C)c(S(=O)(=O)c3ccccc3)c2n1 | -10 | 1.38 |

| SMILES | % Inhibition [%] | Z score |
| --- | --- | --- |
| CN(Cc1nnc2c(=O)n(C)ccn12)C(=O)[C@@H](F)CC1CCCCC1 | -3 | 0.38 |
| Cc1cc(NC(=O)CC(C)NC(C)C2COc3ccccc32)no1 (stereo not drawn) | -2 | 0.31 |
| CCCc1cc(NC[C@H]2CCc3nnc(CC)n3C2)n2ncnc2n1 | -9 | 1.52 |
| NC(=O)[C@@H]1C[C@@H]2CCCN2[C@]12C(=O)Nc1ccccc12 | -12 | 1.48 |
| N#Cc1ccc(O)c(NC(=O)C2CC2c2ccco2)c1 (stereo not drawn) | -13 | 2.39 |
| O=C(Nc1ccncc1)c1nn(Cc2ccccc2Cl)c(=O)c2ccccc12 | -4 | 0.51 |
| CC(C)(C)OC(=O)N1CC2CC1C2NS(=O)(=O)C1(C)CC1 (stereo not drawn) | 6 | -1 |
| CN1CCN(S(=O)(=O)c2ccc3n[nH]c(=O)n3c2)CC1 | -12 | 1.34 |
| CCC(C(=O)NC(C)COC)c1ccccc1 (stereo not drawn) | 0 | -0.01 |
| CN(Cc1ccco1)c1nc(-c2ccncc2)nc2c1CCNCC2 | 4 | -0.49 |
| CCn1c(CCc2cccc(NC(=O)c3ccccc3C)c2)nc2ccccc21 | -10 | 1.19 |
| O=C(O)c1cc(C=Cc2ccc3ncccc3c2)ncn1 | 38 | -1.22 |
| Cc1onc(-c2ccccc2Cl)c1C(=O)NC1CCN(Cc2ccccc2)C1C (stereo not drawn) | -4 | 0.69 |
| Cc1ccc(CN2CCN(Cc3ccncc3)[C@H]3CS(=O)(=O)C[C@H]32)cc1 | -15 | 1.95 |
| Cc1cc(C)c(CN2CCCN(c3ccc(NC(=O)c4ccco4)cc3)C2=O)c(C)c1 | -7 | 1.42 |
| CC(C)[C@H](NCC(=O)N1CCN(CC(=O)Nc2ccccc2C(F)(F)F)CC1)c1cccs1 | -5 | 0.98 |
| COc1cccc2c1CCc1c-2n[nH]c1C(=O)N[C@H](c1nc2ccccc2n1C)C(C)C | 2 | -0.24 |
| O=C1NCCN2CCN(Cc3cccn3S(=O)(=O)c3ccccc3)C[C@@H]12 | -7 | 0.65 |
| Cc1cc(Nc2ccc(C)c(Cl)c2)c2cc(Cl)ccc2n1 | -3 | 0.52 |
| CC(C)(C)OC(=O)N1CCC(NC(=O)C2CCCC(=O)N2)C1(C)C (stereo not drawn) | -14 | 2.71 |
| Cc1nc(NCc2ccc3c(c2)CCO3)cc([C@H]2C[C@@H](O)C2)n1 | -9 | 1.5 |

| SMILES | % Inhibition [%] | Z score |
| --- | --- | --- |
| CC(CC(O)c1ccccc1)NCc1nc2ccccc2n1C (stereo not drawn) | -5 | 0.77 |
| CCOc1ccccc1CNc1nc(C)c(S(N)(=O)=O)s1 | -8 | 1.41 |
| CCOC1CC(NC(=O)NC(C)CC(O)c2ccco2)C12CCC2 (stereo not drawn) | -5 | 0.62 |
| O=C(NCCCc1ccccc1)c1cn(CCCc2ccccc2)nn1 | 0 | 0.04 |
| O=C(c1cccnc1-c1ccoc1)N1C[C@@H]2CC[C@H]1C2 | -17 | 3.29 |
| Cn1c([C@H]2CCCN(Cc3cscn3)C2)nc2ccccc21 | -6 | 0.81 |
| CCCN1C(=O)[C@@H]2CCC(=O)N2c2ccc(C(=O)Nc3ccc(OC)cc3)cc21 | 10 | -1.66 |
| COc1ccc(CC(=O)Nc2ccc3c(c2)NC(=O)[C@H](C)O3)cc1OC | -10 | 1.88 |
| O=C(O)c1c(F)cccc1-c1cccc2cccnc12 | 19 | -2.41 |
| CC(NC(=O)NC(CCO)C(C)(C)C)C1CCC1 (stereo not drawn) | 5 | -0.78 |
| COCCc1nc(CCc2cccnc2)n(C2Cc3ccccc3C2)n1 | -8 | 1.47 |
| CC(C)C(OCC1CCCO1)C(=O)N1CCCC1C1CCCN1C (stereo not drawn) | -11 | 1.6 |
| CCc1nnc(NC(=O)[C@H](C)N(C)Cc2cnc3ccccc3c2)s1 | -6 | 0.73 |
| CN(C)[C@H]1CCN(CC(=O)NCCc2noc(C3CCCC3)n2)C1 | -11 | 1.02 |
| O=S(=O)(c1ccc(F)c(Cl)c1)N1CCC[C@H](Oc2ccncn2)C1 | 9 | -1.29 |
| Fc1cnc(NC[C@H]2CCN(C3CCCCC3)C2)nc1 | 6 | -0.78 |
| O=C(CCn1nc(C(=O)N2CCc3ccccc32)ccc1=O)N1CCN(C2CCCCC2)CC1 | -1 | 0.14 |
| CCCCN(C)Cc1nc2nc(C)cc(N(C)C)n2n1 | -5 | 0.62 |
| CN(C)Cc1cn(C[C@H]2C[C@@H](NS(=O)(=O)c3ccccc3)[C@H](O)[C@@H]2O)nn1 | 0 | -0.02 |
| CC[C@H](c1ccccc1)c1nnc2n1CCS(=O)(=O)CC2 | 0 | 0.02 |
| CCOC(=O)c1ccc(NC(=O)Cc2c(C(=O)O)c(C)cn2C)cc1 | -8 | 1.06 |
